Measurements from PubChem BioAssay AID686978 (National Center for Advancing Translational Sciences (NCATS), 2013).
The whole screen tested about 420,000 compounds, of which about 64,000 (15%) were called active. The shares of active, inactive and inconclusive entries below differ from those in the screen. Calls follow the shape of the dose curve; as a rule, active = well fitted inhibition curve with a large enough effect; inconclusive = small, poorly fitted or top-dose-only effect; inactive = flat fitted curve, though single readings scatter. No potency is given beside an inconclusive call; the fits are too rough.

experiment: qHTS for Inhibitors of human tyrosyl-DNA phosphodiesterase 1 (TDP1): qHTS in cells in absence of CPT; conditions: DT40 Tdp1-/- hTDP1 cells, no CPT, ATP luminescence, 48 h; activity change, negative = growth inhibition: at 46.2 µM (top of the series); also: nearly all actives have a fitted effect of over 55% in size
Summary of the method: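 DT40 Tdp1-/-;hTDP1 cells, no CPT (DMSO vehicle only), 400 cells/well; compounds pin-transferred; ≥48 hr, 37 °C; CellTiter-Glo 30 min RT dark, luminescence read.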
% is scaled to controls: 0 for no effect and ±100 for the full control effect; potency is read from the fitted curve at half-maximal effect; tags tell the direction and shape of the fitted curve.

SMILES | Potency | activity change, negative = growth inhibition
CCc1nn(-c2cc(Oc3ccccc3)nc(-c3ccccc3)n2)c(N)c1C#N | inconclusive [inhibitor, partial curve] | –
CCOc1cc(/C=C(\C#N)C(=O)Nc2ccc(C)cc2)ccc1OCc1cc(=O)n2nc(CC)sc2n1 | inactive | –
C=CCN1C(=O)/C(=C/c2ccc(OC(C)=O)c(OCC)c2[N+](=O)[O-])SC1=S | inconclusive [inhibitor, single point] | –
O=C(NCC(c1ccco1)N1CCc2ccccc2C1)c1ccc(F)cc1 (configuration not stated) | inactive | –
CCN(CCCNC(=O)CCn1c(=S)[nH]c2cc3c(cc2c1=O)OCO3)c1cccc(C)c1 | inactive | –
COc1cc(N)c2ncccc2c1Br | inactive | –
COCCn1c(SCc2ccc(OC)c(F)c2)nnc1-c1ccncc1 | inactive | –
COc1ccc(C(=O)NC(=S)Nc2ccccc2N2CCN(S(C)(=O)=O)CC2)cc1OC | inconclusive [inhibitor, single point] | –
C=CCNC(=O)/C(C#N)=C/c1c(N(Cc2ccccc2)Cc2ccccc2)nc2ccccn2c1=O | inconclusive [inhibitor, single point] | –
O=C(NOCC1CC1)c1ccc(F)c(F)c1Nc1ccc(I)cc1Cl | active: 15 µM | –
c1nc(Nc2ccc(N3CCOCC3)cc2)c2ccsc2n1 | inconclusive [inhibitor, single point] | –
CCOc1cc(N2CCOCC2)c(OCC)cc1NC(=O)COC(=O)CCOc1cc(C)ccc1C | active: 23.1 µM | –
COc1ccc(-c2csc(C(C)(O)c3cccc(F)c3)n2)cc1 (configuration not stated) | active: 13 µM | –
CCC(=O)N1CCc2cc(CNS(=O)(=O)c3ccc(NC(=O)CC(C)C)cc3)ccc21 | active: 18.4 µM | –
O=C(C1=C[C@H](c2csc3ccccc23)C[C@H](OCc2ccc(CO)cc2)O1)N1CCOCC1 | inconclusive [inhibitor, single point] | –
COc1ccc(OCc2nc3c4c(ncn3n2)-c2ccccc2CC42CCCC2)cc1 | inconclusive [inhibitor, single point] | –
COc1ccc(C)cc1NC(=O)c1cccc(-c2ccc(OC(C)=O)cc2)c1 | inconclusive [inhibitor, partial curve] | –
CCCCn1c(O)c(N=Nc2ccccn2)c2ccccc21 | inconclusive [inhibitor, single point] | –
Cc1ccc(C2(C)NC(=O)N(CC(=O)NC(C)c3ccccc3)C2=O)cc1 (configuration not stated) | inactive | –
Cc1ccc(C(=O)NCC(=O)Nc2ccncc2)cc1 | inactive | –
Clc1ccc(/C=N/Nc2nn[nH]n2)cc1 | inactive | –
O=C(CCNC(=O)c1ccc(Br)cc1)OCc1ccccc1Cl | inactive | –
CN(CC(=O)Nc1ccccc1Cl)C(=O)CSc1ncc(C(F)(F)F)cc1Cl | inactive | –
COC(=O)Cn1c(=O)c2c(nc(Br)n2Cc2ccccc2Cl)n(C)c1=O | inconclusive [inhibitor, single point] | –

SMILES | Potency | activity change, negative = growth inhibition
COc1ccc(CN2C(=O)NC3(CCCC3)C2=O)cc1F | inactive | –
Fc1ccccc1-c1nc2ccccc2[nH]1 | inactive | –
O=[N+]([O-])c1cc(Br)c(Nc2ccccc2)c([N+](=O)[O-])c1 | active: 0.92 µM | –
COCCC(=O)N1CCC(Oc2ccc(C(=O)N(C)C(C)c3ccon3)cc2)CC1 (configuration not stated) | inconclusive [inhibitor, single point] | –
O=C(c1cc(COc2ccc(F)cc2Cl)on1)N1C[C@H]2CC[C@H]1C2 | inconclusive [inhibitor, full curve, poor fit] | –
COc1ccc(C2CC3(CC(C)(C)NC(=S)N3)Oc3cc(O)cc(C)c32)cc1 (configuration not stated) | active: 8.2 µM | –
CCOc1cc(C(=O)NCC2CCCO2)cc(OCC)c1OCC (configuration not stated) | inactive | –
COc1ccc(N(CC(=O)Nc2ccccc2F)S(=O)(=O)c2ccc(C)c([N+](=O)[O-])c2)cc1 | active: 23.1 µM | –
CCOC(=O)C1=CCN(S(=O)(=O)c2ccccc2Cl)C1c1cccc(Cl)c1 (configuration not stated) | inconclusive [inhibitor, single point] | –
Cc1ccc(-c2nnc(Nc3ccc(OCC(N)=O)cc3)c3ccccc23)cc1S(=O)(=O)N(C)C | inconclusive [inhibitor, single point] | –
CCC(=O)Nc1ccccc1C(=O)OCC(=O)c1ccc2ccccc2c1 | inconclusive [inhibitor, single point] | –
C=CCNC(=O)/C(C#N)=C/c1ccccc1[N+](=O)[O-] | inconclusive [inhibitor, partial curve] | –
Cc1nc(/N=C\N(C)C)sc1C(=O)Nc1ccccc1 | inconclusive [inhibitor, single point] | –
O=C(COC(=O)c1ccccc1NS(=O)(=O)c1cccs1)NCC12CC3CC(CC(C3)C1)C2 | inconclusive [inhibitor, single point] | –
CC(C)(C)c1ccc(C(=O)C2CCCN(C(=O)CN3CCCC3=O)C2)cc1 (configuration not stated) | inconclusive [inhibitor, single point] | –
N=c1sccn1CC(=O)NCCc1ccc(Cl)cc1Cl | inactive | –
COC(=O)C(c1ccccc1)C1(O)CC(C)N(C)CC1C (configuration not stated) | inactive | –
COc1cc(C(=O)NC2CC(C)(C)CC(C)(C)C2)ccc1OC1CCN(C(C)=O)CC1 | inconclusive [inhibitor, single point] | –
CCCc1nnc(NC(=O)c2oc3ccccc3c2COCC)s1 | inconclusive [inhibitor, single point] | –
C=CCn1c(COc2ccccc2)nc2ccccc21 | active: 23.1 µM | –
CCN(Cc1ccccc1)C(=O)c1cc(S(=O)(=O)N2CCOCC2)cn1C | inactive | –
COc1ccc(C2CC(c3ccccc3)=NN2C(=O)c2ccc(F)cc2)cc1 (configuration not stated) | active: 29.1 µM | –
Cc1ccccc1-c1nc(CS(=O)(=O)CC(=O)NC2CC2)c(C)o1 | inactive | –
CCCc1nc2oc3c(OCC)ncnc3c2c2c1COC(C)(C)C2 | inconclusive [inhibitor, single point] | –

SMILES | Potency | activity change, negative = growth inhibition
O=C(NCc1ccccn1)c1cccc(NS(=O)(=O)c2ccc(Br)cc2)c1 | inactive | –
NC(=O)N1CCN(CCCN2c3ccccc3Sc3cc(Cl)ccc32)CC1 | inconclusive [inhibitor, single point] | –
Nc1nonc1C(=O)NCCNCc1c(OCc2ccccc2F)ccc2ccccc12 | active: 11.2 µM | –
COc1ccc(N2CC(C)Cn3c2nc2c3c(=O)n(Cc3ccc(F)cc3)c(=O)n2C)c(OC)c1 (configuration not stated) | inconclusive [inhibitor, single point] | –
O=C(NCc1cccc(Cl)c1)c1ccc(S(=O)(=O)N2CCCCC2)cc1 | inconclusive [inhibitor, single point] | –
CC1(C)CC(=O)c2cc(-c3nc(-c4ccc(Cl)cc4)cs3)c(=O)n(-c3cccc(F)c3)c2C1 | inconclusive [inhibitor, partial curve, poor fit] | –
COc1cc(C)ccc1OCCSc1nc2ccc(NC(=O)c3ccc(C)cc3)cc2s1 | – | inconclusive: -33.3% [inhibitor]
COc1ccc(-c2nc3ccc(C)cn3c2CC(C)(C)C)cc1OC | active: 20.6 µM | –
CCC/C(O)=C1\C(=O)CC(c2ccccc2)CC1=NCCc1c(C)[nH]c2ccc(C)cc12 (configuration not stated) | inconclusive [inhibitor, partial curve] | –
CN1/C(=C\C(=O)c2oc3ccccc3c2N)C(C)(C)c2ccccc21 | inconclusive [inhibitor, single point] | –
CCCNC(=O)C1CCN(Cc2cc3ccccc3n2Cc2ccccc2)CC1 | active: 18.4 µM | –
Cc1ccc(OCCOCCn2cnc3ccccc3c2=O)c([N+](=O)[O-])c1 | inconclusive [inhibitor, single point] | –
Cc1ncsc1C(=O)N1N=C2/C(=C/c3ccccc3)CCCC2C1c1ccccc1 (configuration not stated) | inconclusive [inhibitor, single point] | –
Cn1cc(C(=O)NCCc2ccccc2)c(=O)c2cc(S(=O)(=O)N3CCCCCC3)ccc21 | inconclusive [inhibitor, single point] | –
Clc1cccc(CN2CCCCCC2)c1Cl | inconclusive [inhibitor, single point] | –
CCCCNC(=O)N1CCN(S(C)(=O)=O)CC1 | inactive | –
COc1ccc(CNC(=O)CCc2c(C)nc3nc(CNC(=O)OC(C)(C)C)nn3c2C)cc1 | inactive | –
CCc1ccc(S(=O)(=O)NCc2ccc(N3CCN(C)CC3)cc2)cc1 | inconclusive [inhibitor, partial curve] | –
N#CN=c1snc(-c2ccccc2Cl)n1-c1ccc(F)cc1 | inconclusive [inhibitor, single point] | –
O=S(=O)(NCCCc1ccccc1)c1ccc(Br)cc1 | – | inconclusive: -32.6% [inhibitor]
CC(C)NC(=S)N1CCn2c(nc3ccccc32)C1 | inconclusive [inhibitor, single point] | –
Cc1ccc(Cn2c(CCNc3nc(-c4ccc(Cl)c([N+](=O)[O-])c4)cs3)nc3cc(Cl)c(Cl)cc32)cc1 | inconclusive [inhibitor, single point] | –
c1csc(C(c2nnnn2C2CCCC2)N2CCCC3(CCCCC3)C2)c1 (configuration not stated) | inconclusive [inhibitor, single point] | –
CN(CC(=O)O)S(=O)(=O)/C=C/c1ccccc1 | inconclusive [inhibitor, full curve, poor fit] | –
